Test results: the antibiotic and cytotoxicity screens of Wong et al. (2023)
The other results are listed elsewhere or left out.

Each compound was assayed on HSkMC (human skeletal muscle cells) (assay: cytotoxicity call (relative viability < 0.9)). Conditions: 10 µM.

| SMILES | cytotoxicity call |
| --- | --- |
| N[C@@H](c1ccccc1)[C@@H](N)c1ccccc1 | inactive |
| NCC1(c2c(F)cc(F)cc2F)CC1 | inactive |
| C=CCN1C[C@H]2CN(C(C)C)C[C@H]2C1=O | inactive |
| C1CN2CN3CCN(CN1C3)C2 | inactive |
| CC(=CCn1c[n+](C)c2c(N)ncnc21)CCC1(C)C(C)CCC2(C)C(C)=CCCC21.[Cl-] (stereo unspecified) | inactive |
| C[C@@H]1CC[C@@]2(OC1)O[C@H]1C[C@H]3[C@@H]4CC=C5C[C@@H](O[C@@H]6O[C@H](CO)[C@@H](O[C@@H]7O[C@@H](C)[C@H](O)[C@@H](O)[C@H]7O)[C@H](O)[C@H]6O[C@@H]6O[C@@H](C)[C@H](O)[C@@H](O)[C@H]6O)CC[C@]5(C)[C@H]4CC[C@]3(C)[C@H]1[C@@H]2C | active |
| CNC(C)(C)Cc1ccccc1.O=S(=O)(O)O | inactive |
| O=c1[nH]oc2c1CCNC2 | inactive |
| CCN1CCN(c2nc(=O)cc(C)[nH]2)CC1 | inactive |
| CC12C(=O)OC(=O)C1(C)C1CCC2O1 (stereo unspecified) | inactive |
| C[C@@H]1CN([C@@H](C)CO)C(=O)CCCn2cc(nn2)CO[C@@H]1CN(C)C(=O)Oc1cccc2ccccc12 | inactive |
| Cc1nc([N+](=O)[O-])c(N2CCNCC2)[nH]1 | inactive |
| NCCCNCCSP(=O)(O)O | inactive |
| C[C@@H](N)Cc1cccc(O)c1 | inactive |
| NC[C@@H](CC(=O)O)c1ccc(Cl)cc1 | inactive |
| O=[N+]([O-])OC1COC2C(O[N+](=O)[O-])COC12 (stereo unspecified) | inactive |
| CC(=O)O[C@H]1C(=O)[C@]2(C)[C@@H](O)C[C@H]3OC[C@@]3(OC(C)=O)[C@@H]2[C@H](OC(=O)c2ccccc2)[C@]2(O)C[C@H](O)C(C)=C1C2(C)C | inactive |
| CC(=O)OC1CC(OC(C)=O)C2(C)C(CC(OC(C)=O)C3(C)C2CCC2(C)C(c4ccoc4)C(=O)C4OC423)C1(C)C (stereo unspecified) | inactive |
| CNCc1cccnc1 | inactive |
| CCN(CC)C1CCCCC1 | inactive |

| SMILES | cytotoxicity call |
| --- | --- |
| CO[C@H]1[C@@H](O)[C@@H](C)O[C@H](O[C@H]2CC[C@@]3(C)[C@H]4CC[C@@]5(C)[C@@H](C6=CC(=O)OC6)CC[C@]5(O)[C@@H]4CC[C@]3(O)C2)[C@@H]1O | inactive |
| N[C@@]1(C(=O)O)CC[C@H](C(=O)O)C1.N[C@]1(C(=O)O)CC[C@@H](C(=O)O)C1 | inactive |
| C[As](C)SC[C@H](NC(=O)CC[C@H](N)C(=O)O)C(=O)NCC(=O)O | inactive |
| CC1C(=O)OC2CCN3CC=C(COC(=O)C(C)(O)C1(C)O)C23 (stereo unspecified) | inactive |
| c1ccc2c(c1)[nH]c1cnccc12 | inactive |
| Cc1cc2c(C(C)C)c(O)c(O)c(C=O)c2c(O)c1-c1c(C)cc2c(C(C)C)c(O)c(O)c(C=O)c2c1O | inactive |
| CC[n+]1c(-c2ccccc2)c2cc(N)ccc2c2ccc(N)cc21.[Br-] | inactive |
| C=C[C@H]1CN2CC[C@@H]1C[C@@H]2CO | inactive |
| CN1CCN([C@@H](CN)c2ccc3c(c2)OCO3)CC1 | inactive |
| CCCCCCCCCCCCCCCC[n+]1ccccc1.[Cl-] | active |
| CC(C)C[C@@H]1C(=O)N2CCC[C@@H]2[C@]2(O)O[C@@](NC(=O)[C@@H]3C=C4c5cccc6[nH]c(Br)c(c56)C[C@@H]4N(C)C3)(C(C)C)C(=O)N12 | inactive |
| O[C@H]1[C@H](O)[C@@H](O)CN2CC[C@H](O)[C@H]12 | inactive |
| O=C1C[C@@H](CO)CN1 | inactive |
| CC(C)[C@H]1CNC(=O)C1 | inactive |
| C#CCOS(=O)OC1CCCCC1Oc1ccc(C(C)(C)C)cc1 (stereo unspecified) | inactive |
| O=[N+]([O-])c1ccc(O)c([N+](=O)[O-])c1 | inactive |
| CNC(=O)Oc1ccc2c(c1)[C@]1(C)CCN(C)[C@@H]1N2C.CNC(=O)Oc1ccc2c(c1)[C@]1(C)CCN(C)[C@@H]1N2C.O=S(=O)(O)O | inactive |
| Cc1cc(O)c2c(=O)c3c(O)cc(O)c4c5c(O)cc(O)c6c(=O)c7c(O)cc(C)c8c1c2c(c34)c(c78)c65 | active |
| COC(N)=O | inactive |

What follows are compounds tested on HepG2 (assay: cytotoxicity call (relative viability < 0.9)). Conditions: 10 µM.

| SMILES | cytotoxicity call |
| --- | --- |
| NCC1(c2c(F)cc(F)cc2F)CC1 | inactive |
| C=CCN1C[C@H]2CN(C(C)C)C[C@H]2C1=O | inactive |
| CC(=CCn1c[n+](C)c2c(N)ncnc21)CCC1(C)C(C)CCC2(C)C(C)=CCCC21.[Cl-] (stereo unspecified) | inactive |
| C[C@@H]1CC[C@@]2(OC1)O[C@H]1C[C@H]3[C@@H]4CC=C5C[C@@H](O[C@@H]6O[C@H](CO)[C@@H](O[C@@H]7O[C@@H](C)[C@H](O)[C@@H](O)[C@H]7O)[C@H](O)[C@H]6O[C@@H]6O[C@@H](C)[C@H](O)[C@@H](O)[C@H]6O)CC[C@]5(C)[C@H]4CC[C@]3(C)[C@H]1[C@@H]2C | active |
| O=c1[nH]oc2c1CCNC2 | inactive |
| CC12C(=O)OC(=O)C1(C)C1CCC2O1 (stereo unspecified) | active |
| C[C@@H]1CN([C@@H](C)CO)C(=O)CCCn2cc(nn2)CO[C@@H]1CN(C)C(=O)Oc1cccc2ccccc12 | inactive |
| Cc1nc([N+](=O)[O-])c(N2CCNCC2)[nH]1 | inactive |
| NCCCNCCSP(=O)(O)O | inactive |
| NC[C@@H](CC(=O)O)c1ccc(Cl)cc1 | inactive |
| CC(=O)O[C@H]1C(=O)[C@]2(C)[C@@H](O)C[C@H]3OC[C@@]3(OC(C)=O)[C@@H]2[C@H](OC(=O)c2ccccc2)[C@]2(O)C[C@H](O)C(C)=C1C2(C)C | active |
| CNCc1cccnc1 | active |
| CO[C@H]1[C@@H](O)[C@@H](C)O[C@H](O[C@H]2CC[C@@]3(C)[C@H]4CC[C@@]5(C)[C@@H](C6=CC(=O)OC6)CC[C@]5(O)[C@@H]4CC[C@]3(O)C2)[C@@H]1O | inactive |
| CC1C(=O)OC2CCN3CC=C(COC(=O)C(C)(O)C1(C)O)C23 (stereo unspecified) | inactive |
| c1ccc2c(c1)[nH]c1cnccc12 | inactive |
| CC[n+]1c(-c2ccccc2)c2cc(N)ccc2c2ccc(N)cc21.[Br-] | active |
| CCCCCCCCCCCCCCCC[n+]1ccccc1.[Cl-] | active |
| O=C1C[C@@H](CO)CN1 | inactive |
| C#CCOS(=O)OC1CCCCC1Oc1ccc(C(C)(C)C)cc1 (stereo unspecified) | inactive |
| O=[N+]([O-])c1ccc(O)c([N+](=O)[O-])c1 | inactive |
| CNC(=O)Oc1ccc2c(c1)[C@]1(C)CCN(C)[C@@H]1N2C.CNC(=O)Oc1ccc2c(c1)[C@]1(C)CCN(C)[C@@H]1N2C.O=S(=O)(O)O | inactive |
| Cc1cc(O)c2c(=O)c3c(O)cc(O)c4c5c(O)cc(O)c6c(=O)c7c(O)cc(C)c8c1c2c(c34)c(c78)c65 | active |
